# Laboratory results from paper PMC6212790.
# Some of the results follow. At the low end of the ranking the order means little.
# Molecular target: T1, GST-Rok-C97-191 (UniProt O34857)
# T1 sequence: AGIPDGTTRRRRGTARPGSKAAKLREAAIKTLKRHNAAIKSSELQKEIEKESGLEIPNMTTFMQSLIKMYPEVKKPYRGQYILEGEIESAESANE
# Assay: protein binding microarray;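 note: rank score from −0.5 (least bound) to 0.5 (best bound)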
# Details: Rok is a gene silencer of Bacillus subtilis; high values mean tight binding; most listed sequences are background and not binding sites; double strand, one strand shown
row,Sequence,binding signal
1,TACCACGA,-0.0495 E-score
2,ATATTTCA,0.209 E-score
3,CCTCTCGA,-0.0079 E-score
4,CACTTCCC,-0.23 E-score
5,CCCATACA,-0.0881 E-score
6,ACACTCCA,-0.114 E-score
7,CGTGAAAA,-0.0271 E-score
8,ACATTTTC,0.25 E-score
9,AGTCTTAC,-0.0282 E-score
10,CAACGATC,-0.0668 E-score
11,AGCAGACC,-0.211 E-score
12,ACGTAACA,0.138 E-score
13,CCGGACGG,-0.16 E-score
14,GGCACGAC,-0.111 E-score
15,CTATTTAA,0.14 E-score
16,CATTTTTC,0.0874 E-score
17,CTGATGCA,-0.00113 E-score
18,AGGTAGGC,-0.0746 E-score
19,ACATCCGC,-0.0238 E-score
20,CATGGGCG,-0.142 E-score
21,AAGCGGGG,-0.141 E-score
22,TCGCCAGA,-0.108 E-score
23,GGAATTAC,0.176 E-score
24,CTACCATA,0.324 E-score
25,GAGAAGCA,0.0593 E-score

row,Sequence,binding signal
1,CGAAGTCA,0.0513 E-score
2,GTGGTTCA,-0.0356 E-score
3,CGCCAGCC,-0.311 E-score
4,CGTCGCCC,-0.269 E-score
5,GACACTAA,0.185 E-score
6,CTTGCCAC,-0.0529 E-score
7,AAAAGTCA,-0.0792 E-score
8,AGACCCCC,-0.377 E-score
9,AGCAAAGC,-0.0396 E-score
10,ACCCGTGG,-0.184 E-score
11,CGGCATAA,-0.0226 E-score
12,CTCGTTCA,-0.155 E-score
13,CAGTACTA,0.264 E-score
14,CGGCCAGA,-0.075 E-score
15,GAGATGGA,-0.0593 E-score
16,GGCCATAA,-0.115 E-score
17,AATGCAGA,0.0249 E-score
18,CTAAGTTC,-0.00117 E-score
19,CACTAATC,0.1 E-score
20,GCAGTTAA,0.177 E-score
21,AAGCGTGA,-0.184 E-score
22,AAGCACGA,0.0891 E-score
23,TAAACATA,0.263 E-score
24,ACCATGGA,0.0364 E-score
25,CGTGATGC,-0.183 E-score

row,Sequence,binding signal
1,AGTTCTAA,0.142 E-score
2,AGCCTCAA,-0.0292 E-score
3,ACCTTCGT,-0.187 E-score
4,CTTGCACA,0.0299 E-score
5,CCGAAGTA,-0.00374 E-score
6,CCCGTGGA,-0.274 E-score
7,CTGGAGCC,-0.167 E-score
8,ATCACACA,0.0412 E-score
9,ACAAACCT,-0.0156 E-score
10,CTATAGTA,0.371 E-score
11,GCTGACAC,-0.0132 E-score
12,AGGAAGTG,-0.122 E-score
13,CGTATGTA,0.214 E-score
14,AAGTGCCG,-0.15 E-score
15,GACTAAGA,0.158 E-score
16,CCAAGAAC,-0.109 E-score
17,TTGGTAAA,0.207 E-score
18,AAGGCTAA,-0.135 E-score
19,GATTAAAC,-0.0781 E-score
20,ACATCCCC,-0.166 E-score
21,CACTTTCC,0.0258 E-score
22,GATCCGCC,-0.221 E-score
23,ACAGTGTC,0.0893 E-score
24,AGACCCTC,-0.321 E-score
25,AGAGATAC,0.166 E-score

row,Sequence,binding signal
1,CACCCATA,0.11 E-score
2,CTGATTTC,0.0533 E-score
3,CTGTTTAA,-0.0615 E-score
4,GTAACCCA,-0.023 E-score
5,GAATTACA,0.275 E-score
6,TACTCTCA,0.0486 E-score
7,CGCACACA,-0.142 E-score
8,ATGCTCAC,-0.051 E-score
9,ATGGGATC,-0.169 E-score
10,CAATGCTC,-0.169 E-score
11,ACCGTGGC,-0.127 E-score
12,AGGACACT,-0.0734 E-score
13,GGACTGAA,-0.103 E-score
14,ACTTTCAC,0.0142 E-score
15,TGACGTAA,-0.0454 E-score
16,GGTTGCAA,-0.107 E-score
17,TCGTTGCA,0.0683 E-score
18,CGCGTGCC,-0.342 E-score
19,GCGCAACA,9.73e-05 E-score
20,ACACTAAC,0.101 E-score
21,CTCGGCCA,-0.0679 E-score
22,GGGAACCA,-0.282 E-score
23,AATTCTTC,0.0496 E-score
24,CCGACGCC,-0.268 E-score
25,CCACGTTA,0.185 E-score

row,Sequence,binding signal
1,GAGTCTAC,-0.0709 E-score
2,ACGCGGTC,-0.114 E-score
3,GTGGGAGA,-0.209 E-score
4,AATAGAGC,-0.02 E-score
5,CCAAAGTC,-0.116 E-score
6,AAGCTCAC,0.0253 E-score
7,CACGCTGC,-0.232 E-score
8,CTCGGGCA,-0.105 E-score
9,GAATACGA,-0.016 E-score
10,GCCAGTTA,0.24 E-score
11,TAACTGGA,0.139 E-score
12,AAGGCAAC,-0.0728 E-score
13,AGAGATCA,-0.172 E-score
14,ACACCTTC,-0.0523 E-score
15,CTTAGAAC,0.124 E-score
16,GGAACCTA,0.13 E-score
17,GCCCTGCC,-0.301 E-score
18,ACTGGAAT,0.088 E-score
19,CATGGTCA,-0.067 E-score
20,ACTGCGCG,-0.0406 E-score
21,AGTCCGAG,-0.355 E-score
22,TCGCACGA,-0.0689 E-score
23,CACAAACA,0.0612 E-score
24,CACCTCAG,-0.24 E-score
25,GATCAACA,-0.115 E-score

row,Sequence,binding signal
1,AATTATGG,0.249 E-score
2,CGAGAACC,-0.131 E-score
3,CGCCCAGA,-0.293 E-score
4,CCAGGTAA,-0.0546 E-score
5,CGAAGGAA,-0.177 E-score
6,AAGTTGAG,-0.0126 E-score
7,AGACACAA,0.015 E-score
8,CATAGTTC,0.168 E-score
9,GGCTTTAA,-0.0588 E-score
10,GCTGAGGA,-0.155 E-score
11,AGTCGGCC,-0.129 E-score
12,GGCCAGTA,-0.111 E-score
13,AACTCGCA,0.067 E-score
14,ATCCTCAT,-0.00756 E-score
15,ATGTCTCG,0.0615 E-score
16,CACTGTAA,0.104 E-score
17,AACGGTCG,-0.155 E-score
18,GATTATTA,0.225 E-score
19,ACGAGCTA,-0.0707 E-score
20,CGTGGAGA,0.0304 E-score
21,AATCAGTG,0.0771 E-score
22,CAGCAGGC,-0.193 E-score
23,GACTTGCC,0.051 E-score
24,AGACGAGA,-0.00949 E-score
25,AAGCGCCA,-0.328 E-score

row,Sequence,binding signal
1,ACGTCAGC,0.0192 E-score
2,AGCTAGTA,0.336 E-score
3,CGTGCCAG,-0.155 E-score
4,ACATTAAT,0.311 E-score
5,ATGATTTG,-0.0391 E-score
6,AATGTACT,0.296 E-score
7,CTTCCGTA,0.0459 E-score
8,GAAGACTC,-0.238 E-score
9,AGTTCGAT,0.265 E-score
10,CGGCTCCA,-0.267 E-score
11,AGACATTC,0.0137 E-score
12,CGGCTGGA,-0.165 E-score
13,ACACGATA,0.00577 E-score
14,GCCACGAC,-0.199 E-score
15,ATATATGA,0.329 E-score
16,AAGATTGG,0.11 E-score
17,GAATGCGA,0.0482 E-score
18,AATCGAAT,-0.0342 E-score
19,CTCGAGTA,-0.0872 E-score
20,AGGCATCG,0.126 E-score
21,CAACCCTC,-0.164 E-score
22,AAGCACTC,-0.185 E-score
23,ATGGACAG,-0.0644 E-score
24,TGTTAACA,0.294 E-score
25,AAACGCTC,-0.13 E-score

row,Sequence,binding signal
1,ATCGACTG,0.013 E-score
2,AAACCGAC,-0.0913 E-score
3,GTCCCCAC,-0.32 E-score
4,AAGCAGAG,-0.0342 E-score
5,GAGCCTTA,-0.0648 E-score
6,ACGCTTTC,-0.059 E-score
7,TTCGCAAA,0.0527 E-score
8,GCCGCCCA,-0.137 E-score
9,AACAACGA,0.0531 E-score
10,CCCGTCTA,-0.217 E-score
11,TCCGGGAA,-0.111 E-score
12,CCGCACCC,-0.264 E-score
13,AGTCGACT,0.0786 E-score
14,CTGCTCCC,-0.345 E-score
15,ACTTTAAA,0.152 E-score
16,GCCCTGCA,-0.172 E-score
17,CCACGGGC,-0.279 E-score
18,TATCAGGA,0.143 E-score
19,CGCCAGTA,-0.0509 E-score
20,AGCGCTAT,-0.0227 E-score
21,ATCCGTCC,-0.186 E-score
22,AGGGGCTG,-0.369 E-score
23,ACAGCAGC,-0.138 E-score
24,CATGGCGG,-0.194 E-score
25,ACCCGTCC,-0.0808 E-score

row,Sequence,binding signal
1,AGAACCGG,-0.264 E-score
2,ACTTAACC,0.0427 E-score
3,CTTGCTAC,0.0474 E-score
4,CGGTATAC,0.031 E-score
5,CCACAGCC,-0.151 E-score
6,AGTGCACG,-0.123 E-score
7,CCCCGTCG,-0.378 E-score
8,ACTTTTTG,-0.0572 E-score
9,AATCGCGC,0.0538 E-score
10,CCTTCAAG,-0.205 E-score
11,AGGTTTAG,0.027 E-score
12,CATTTGAG,-0.0786 E-score
13,AGGGCCTA,-0.147 E-score
14,AAATATCA,0.252 E-score
15,AAGCCGCT,-0.0453 E-score
16,CCCCGGTA,0.0862 E-score
17,CCTGCGAC,-0.224 E-score
18,GAAGGGTC,-0.284 E-score
19,GATCCGGA,0.00879 E-score
